Data taken from ChEMBL document CHEMBL5303300, “EUbOPEN Chemogenomics Library - Multiplex” (2023).

Legend:
Assay type in all cases: toxicity, cell-based
Fibroblast = experiment: Multiplex assay against human fibroblast; settings: 10 µM, compound concentration 10 uM, number of replicates 2
In short: (§1)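 Imaging took place on a CQ1 microscope at 37°C and 5% CO2 once compound had been added to live cells stained at seeding with Hoechst33342, BioTracker Green Microtubule Cytoskeleton Dye, MitoTracker Red and Annexin V Alexa Fluor 680. CellPathfinder machine-learning gating classed cells as Hoechst high-intensity objects or normal cells, classed normal cells as having healthy, pyknosed or fragmented nuclei, and classed pyknosed cells as mitotic or apoptotic. Tubulin, mitochondrial-mass and membrane-permeability phenotypes are per cents of the healthy-nucleus cells.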

U2OS = experiment: Multiplex assay against U2OS; settings: human, number of replicates 2; in short: as §1
HEK-293T = experiment: Multiplex assay against HEK293T; settings: human, 48 h, number of replicates 2; in short: as §1
[1] = 12 h, 1 µM, compound concentration 1 uM
[2] = 12 h, 10 µM, compound concentration 10 uM
[3] = 24 h, 1 µM, compound concentration 1 uM
[4] = 24 h, 10 µM, compound concentration 10 uM
[5] = 48 h, 1 µM, compound concentration 1 uM
[6] = 48 h, 10 µM, compound concentration 10 uM
[7] = 1 µM, compound concentration 1 uM

CCCCOc1c(C(=O)c2c(F)cc(C)cc2F)c[nH]c2nncc1-2
Population Membrane Permeable-Phenotype (%) (Fibroblast; 48 h): 18% and 3% | Population Fragmented Nuclei (%) (U2OS; [1]): 27% and 3% | Total Cell Count (U2OS; [1]): 55 and 207 | Population Mitotic Cells (%) (U2OS; [2]): 57% and 16% | Population Pyknosed Nuclei (%) (U2OS; [2]): 51% and 12% | Population Pyknosed Nuclei (%) (U2OS; [3]): 37% and 12% | Total Cell Count (U2OS; [3]): 40 and 261 | Population Fragmented Nuclei (%) (U2OS; [4]): 22% and 6% | Population Healthy Nuclei (%) (U2OS; [4]): 26% and 81% | Population Pyknosed Nuclei (%) (U2OS; [4]): 51% and 11% | Population Pyknosed Nuclei (%) (U2OS; [5]): 23% and 6% | Total Cell Count (U2OS; [5]): 69 and 434 | Population Fragmented Nuclei (%) (U2OS; [6]): 25% and 7% | Population Healthy Nuclei (%) (U2OS; [6]): 14% and 76% | Population Pyknosed Nuclei (%) (U2OS; [6]): 60% and 15% | Population Apoptotic (%) (HEK-293T; [7]): 11% and 34%

O=C(NCc1ccc(F)cc1)N1CCN2C(=O)OC(c3ccccc3)(c3ccccc3)C2C1 (configuration not stated)
Population Mitotic Cells (%) (Fibroblast; 48 h): 54% and 16% | Total Cell Count (U2OS; [1]): 27 and 302 | Total Cell Count (U2OS; [2]): 38 and 256 | Population Pyknosed Nuclei (%) (U2OS; [3]): 8% and 32% | Total Cell Count (U2OS; [3]): 425 and 35 | Total Cell Count (U2OS; [4]): 37 and 324 | Population Fragmented Nuclei (%) (U2OS; [5]): 2% and 18% | Population Mitotic Cells (%) (U2OS; [5]): 62% and 10% | Total Cell Count (U2OS; [5]): 786 and 54 | Total Cell Count (U2OS; [6]): 56 and 465 | Population Apoptotic (%) (HEK-293T; [7]): 8% and 32%

CCCN(CCc1cccs1)[C@H]1CCc2c(O)cccc2C1 [ROTIGOTINE]
Population Apoptotic (%) (Fibroblast; 12 h): 50% and 13% | Population Apoptotic (%) (Fibroblast; 24 h): 83% and 20% | Population Mitotic Cells (%) (Fibroblast; 24 h): 16% and 80% | Population Membrane Permeable-Phenotype (%) (U2OS; [1]): 1% and 13% | Population Fragmented Nuclei (%) (U2OS; [2]): 3% and 23% | Population Tubulin-Different-Phenotype (%) (U2OS; [2]): 57% and 17% | Population Fragmented Nuclei (%) (U2OS; [4]): 3% and 14% | Population Fragmented Nuclei (%) (U2OS; [5]): 2% and 14% | Population Mitotic Cells (%) (U2OS; [5]): 64% and 16% | Population Apoptotic (%) (HEK-293T; 10 µM, compound concentration 10 uM): 16% and 4%

For part of its entries the source gives two or more results. Only these are listed. The source may hold further records. Values given together are repeated measurements (runs, samples, wells, individuals or studies).
